# Assay results reported in PubChem BioAssay AID588591 (National Center for Advancing Translational Sciences (NCATS), 2011).
# In all, about 390,000 compounds went through this assay and about 4,700 (1.2%) were called active. The shares of active, inactive and inconclusive entries below differ from those in the screen. Calls follow the shape of the dose curve; as a rule, active = well fitted inhibition curve with a large enough effect; inconclusive = small, poorly fitted or top-dose-only effect, or another doubt; inactive = no such curve, though single readings can be large or run the other way. Potencies beside an inconclusive call are fits to weak or partial responses and may not hold up.
# Target: DNA polymerase eta (Homo sapiens) (UniProt Q9Y253)
# Assay: qHTS for Inhibitors of Polymerase Eta
# Conditions: recombinant Pol eta, fluorescent DNA replication assay; series mostly up to 114 µM; activity change, negative = inhibition: at the top concentration
# Procedure, shortened: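 Pol eta at 10 nM preincubated with compounds 15 min at room temperature; reaction started with fluorescent substrate (50 nM final) and read kinetically at 0 and 10 min.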
# % is scaled to controls: 0 for no effect and ±100 for the full control effect; potency is read from the fitted curve at half-maximal effect; tags tell the direction and shape of the fitted curve.
# UniProt Q9Y253, sequence (Q9Y253 whole entry, looked up): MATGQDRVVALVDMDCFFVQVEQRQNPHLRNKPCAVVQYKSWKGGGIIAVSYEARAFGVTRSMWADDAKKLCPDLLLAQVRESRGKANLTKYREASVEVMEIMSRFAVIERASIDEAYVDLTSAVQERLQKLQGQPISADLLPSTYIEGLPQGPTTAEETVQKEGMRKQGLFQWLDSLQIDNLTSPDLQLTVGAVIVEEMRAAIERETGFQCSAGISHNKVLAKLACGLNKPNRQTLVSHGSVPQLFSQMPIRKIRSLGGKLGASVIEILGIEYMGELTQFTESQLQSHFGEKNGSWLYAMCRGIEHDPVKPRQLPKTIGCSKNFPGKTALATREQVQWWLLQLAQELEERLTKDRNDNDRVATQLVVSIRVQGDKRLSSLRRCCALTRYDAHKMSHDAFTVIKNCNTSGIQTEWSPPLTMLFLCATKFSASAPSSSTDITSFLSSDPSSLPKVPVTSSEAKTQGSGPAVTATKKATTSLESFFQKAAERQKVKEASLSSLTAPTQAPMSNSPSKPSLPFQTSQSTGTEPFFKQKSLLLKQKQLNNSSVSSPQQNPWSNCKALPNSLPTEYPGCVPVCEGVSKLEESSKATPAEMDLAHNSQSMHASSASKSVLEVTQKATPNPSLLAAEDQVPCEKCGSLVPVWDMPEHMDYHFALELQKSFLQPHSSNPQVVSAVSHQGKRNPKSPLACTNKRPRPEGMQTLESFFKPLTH
SMILES,Potency,"activity change, negative = inhibition"
Cc1ccc(C(=O)N/C(=C\c2ccc(C)o2)C(=O)O)cc1,active: 31.6 µM,
COc1ccc(-c2csc(NC(=O)c3cccc(S(=O)(=O)N4CCN(C)CC4)c3)n2)cc1,"inconclusive: 39.8 µM [inhibitor, partial curve, poor fit]",
CC(C)(C)c1cccc(C2(O)C(=O)c3ccccc3C2=O)c1O,,inactive: -15.1%
CCOC(=O)CSC1=NC(=O)CS1,,inactive: 4.68%
O=S(=O)(Nc1nc(-c2sccc2Cl)cs1)c1cc(Cl)ccc1Cl,"inconclusive: 50.1 µM [inhibitor, partial curve, poor fit]",
Cc1ccc(OCC(=O)NNC(=O)C2CCCO2)c(C)c1 (centres undefined),,inactive: -8.49%
O=C(CSCc1ccc(Cl)c(Cl)c1)Nc1c[nH]c(=O)[nH]c1=O,"inconclusive: 31.6 µM [inhibitor, single point]",
COc1ccc(C)cc1NC(=O)C(c1ccccc1)N1CCN(CC(=O)N2CCOCC2)CC1 (centres undefined),"inconclusive: 44.7 µM [inhibitor, partial curve, poor fit]",
Nc1c(Br)cc(Br)c2c1C(=O)c1c(cccc1S(=O)(=O)O)C2=O,"inconclusive: 44.7 µM [inhibitor, partial curve]",
COc1ccc(C2CC(=O)N3CN(c4ccc(C)c(Cl)c4)CSC3=C2C#N)cc1 (centres undefined),,inactive: -7.75%
CN(C)c1ccc(C2C3=C(CCCC3=O)OC3=C2C(=O)CCC3)cc1,"inconclusive: 28.2 µM [inhibitor, single point]",
CC1=C(C(=O)N2CCOCC2)CC(CC(=O)NCc2cccc3ccccc23)C(=O)N1Cc1ccc(F)cc1 (centres undefined),,inactive: -6.42%
N/C(=N\OC(=O)c1ccc(Cl)c(Cl)c1)c1ccccn1,,inactive: -12.4%
COC(=O)c1c(-c2ccco2)csc1NC(=O)C1CC=CCC1C(=O)O (centres undefined),"inconclusive: 15.8 µM [inhibitor, full curve, poor fit]",
CCSc1ccc(C(=O)Nc2ccc(-c3nc4ccc(C)cc4s3)cc2)cc1,"inconclusive: 89.1 µM [inhibitor, single point]",
Cc1ccc(-c2nn(C)c(=O)c3ccccc23)cc1S(=O)(=O)NCCN1CCOCC1,"inconclusive: 31.6 µM [inhibitor, partial curve, poor fit]",
O=C(N/N=C/C=C/c1ccco1)c1cccnc1,"inconclusive: 79.4 µM [inhibitor, partial curve, poor fit]",
N#Cc1ccc(-c2nc3ccc(Br)cn3c2Cc2ccccc2)cc1,,inactive: -16.9%
CNC(=O)COC(=O)c1c2c(nc3ccccc13)CCC2,active: 25.1 µM,
CC(C)(C)c1ccc(OCC(=O)N/N=C/c2ccc(N3CCOCC3)cc2)cc1,,inactive: -16.8%
CN1c2ccc([N+](=O)[O-])cc2C(C)(C)C12C=Cc1cc(C(=O)O)ccc1O2 (centres undefined),"inconclusive: 89.1 µM [inhibitor, single point]",
CC1(C)CC(=O)C2=C(C1)NC(=O)NC2c1ccccc1 (centres undefined),,inactive: -4.98%

SMILES,Potency,"activity change, negative = inhibition"
CCOc1ccc(C(=O)Nc2ccc(N3CCN(C(=O)c4ccco4)CC3)cc2)cc1Br,"inconclusive: 31.6 µM [inhibitor, single point]",
COc1cc(C(=O)N(Cc2ccc(F)cc2)Cc2ccco2)cc(OC)c1OC,,inactive: -10.2%
C=C(CC)C(=O)c1ccc(OCC(=O)O)c(Cl)c1Cl,active: 79.4 µM,
O=C(COC(=O)c1nc(Cl)ccc1Cl)Nc1ccc2[nH]c(=O)[nH]c2c1,"inconclusive: 25.1 µM [inhibitor, partial curve, poor fit]",
C=CCNC(=O)CN1c2cccc3cccc(c23)S1(=O)=O,"inconclusive: 39.8 µM [inhibitor, single point]",
O=P(c1ccccc1)(c1ccccc1)c1cc(S(=O)(=O)O)ccc1O,active: 20 µM,
CC(/C=C/c1ccco1)=N/NC(=O)c1ccccc1Cl,"inconclusive: 31.6 µM [inhibitor, partial curve, poor fit]",
CC(=O)Nc1ccc(S(=O)(=O)N(C)c2ccc(OCC(=O)OCC(=O)Nc3ccc(OC(F)F)cc3)cc2)cc1,,inactive: -4.5%
Cc1ccc(S(=O)(=O)N2CCOCC2)cc1NC(=O)c1ccncc1,,inactive: -10.2%
Cc1cc(C)c(NC(=O)CSc2nc3ccccc3c3nc(CCn4cncc4C)nn23)c(C)c1,,inactive: -7.4%
O=C(N/N=C/c1c[nH]c2ccc(Br)cc12)c1ccc2c(c1)OCO2,"inconclusive: 44.7 µM [inhibitor, partial curve, poor fit]",
NS(=O)(=O)c1ccc(NC(=O)c2cccc3cc4ccccc4nc23)cc1,"inconclusive: 3.55 µM [inhibitor, partial curve, poor fit]",
O=C(Nc1cccc2ccccc12)NC1CCCc2ccccc21 (centres undefined),"inconclusive: 1 µM [inhibitor, full curve, poor fit]",
O=C(N/N=C\c1ccc(-c2ccccc2[N+](=O)[O-])o1)C1COc2ccccc2O1 (centres undefined),"inconclusive: 39.8 µM [inhibitor, partial curve, poor fit]",
O=C(/C=C/c1cccc([N+](=O)[O-])c1)c1ccc2c(c1)OCCO2,"inconclusive: 25.1 µM [inhibitor, partial curve, poor fit]",
CC(C)C1Nc2c(C(=O)O)cccc2C(Nc2ccccc2C(=O)O)C1(C)C (centres undefined),"inconclusive: 20 µM [inhibitor, partial curve, poor fit]",
C[C@H](NC(=O)COc1ccccc1)C(=O)OCC(=O)c1cc2ccccc2o1,,inactive: -13.3%
CC1(C)CC(=O)C=C(c2ccc(COC(=O)c3cccc(C(F)(F)F)c3)cc2)C1=O,"inconclusive: 35.5 µM [inhibitor, partial curve, poor fit]",
COc1ccc(-n2ccnc2SCC(=O)NCc2ccc(F)cc2)c(OC)c1,"inconclusive: 3.98 µM [inhibitor, partial curve, poor fit]",
CCOC(=O)C1CCCN(C(=O)c2cc3cc(OC)c(OC)cc3[nH]2)C1 (centres undefined),,inactive: -19.8%
COc1cccc(-c2ccc(-c3noc(-c4ccccc4Br)n3)c(OC)n2)c1,,inactive: -17.5%
CC(C)(CNC(=O)/C=C/c1ccc(F)cc1)CNC(=O)/C=C/c1ccc(F)cc1,"inconclusive: 89.1 µM [inhibitor, partial curve, poor fit]",
